Measurements: the RNAGym collection of RNA variant scans (doi:10.7554/elife.90254)
The source gives no read counts; variants with many changes may rest on few reads.

B1: LINE1-mini (parent)
chain: GGCAGAGCUCAACACAGCGUGGCAAAGUGGCUGUGGCUAGACUGCC

Variants of: B1
Test: self-cleavage, relative activity (ratio to wild type); higher = more cleavage; in vitro, sequencing; the parent is a self-cleaving ribozyme

Row | Variant | self-cleavage
1 | GGCAGAGCUCAAAACAGCGUGGCAAAGUGGCUGUCGCUAGCCUGCC [C13A G35C A41C] | 0.03
2 | GGCAGAGCUCAAAACAGCUUGGUAAAGUGGCUGUGGCUAGACUGCC [C13A G19U C23U] | 0.11
3 | GGCAGAGCUCAAAACAGCGUGGCAGAGUGGCUGUGGAUAGACAGCC [C13A A25G C37A U43A] | 0.11
4 | GGCAGAGCUCAAAACAGCGUGGCAAAGUGGCUGUGGCUACACCGCC [C13A G40C U43C] | 0.17
5 | GGCAGAGCUCAAAACAGCGUGGGAUAGUGGCAGAGGUUAGACUGCC [C13A C23G A25U U32A U34A C37U] | 0.08
6 | GGCAGAGCUCAAAACAGCGUGGUAAAGUGGCUGUGGCUAGACUUCC [C13A C23U G44U] | 0.01
7 | GGCAGAGCUCAAAACAGCCUGGCGAAGUGGCUGUGGCUAGACUGCC [C13A G19C A24G] | 0.03
8 | GGCAGAGCUCAAAACAGCGUGGCAUAGUGGCUGUGUCUAAACUGCC [C13A A25U G36U G40A] | 0.18
9 | GGCAGAGCUCAAAAAAGCGUGGCAAAGUGGCUGUGGCGAGACUGCC [C13A C15A U38G] | 0.17
10 | GGCAGAGCUCAAAAUAGCAUGGCACAGUGGCUGUGGCUAGACUGCC [C13A C15U G19A A25C] | 0.15
11 | GGCAGAGCUCAAAAGACUGUGGCAAAGUGGCUGUGGCUAGACUGCA [C13A C15G G17C C18U C46A] | 0.02
12 | GGCAGAGCUCAAAAUGGCGUGGCAAAGUGUCUGUGGCUAGACUGCA [C13A C15U A16G G30U C46A] | 0.15
13 | GGCAGAGCUCAAAACAGCGUGGCAAAGUGGGUGUGGCUAGACUGUC [C13A C31G C45U] | 0.13
14 | GGCAGAGCUCAAAACAGCGUGCCAAAGUGGCUGUGGCUAGACUCCC [C13A G22C G44C] | 0.03
15 | GGCAGAGCUCAAAAUAGCGUGGGAAAGUGGCUGUGGCUAGACUGGC [C13A C15U C23G C45G] | 0.09
16 | GGCAGAGCUCAAAACAGCGUGGUAAAGUGGCUGUCGCUAGACUGCC [C13A C23U G35C] | 0.79
17 | GGCAGAGCUCAAAACAGCGUGGAAAAGUGGUUGUGGCUAGACUGCC [C13A C23A C31U] | 0.08
18 | GGCAGAGCUCAAAACAGCUUGGCAAAGUGGCUGUGGCUAGACUGGC [C13A G19U C45G] | 0.08
19 | GGCAGAGCUCAAAACAGCGUGGCAGAGUGGCUAUGGCUAGACUGCC [C13A A25G G33A] | 0.02

Row | Variant | self-cleavage
20 | GGCAGAGCUCAAAACAGCUUGGCAAAGUUGCUGUGGCUACACUGCC [C13A G19U G29U G40C] | 0.04
21 | GGCAGAGCUCAAAACAGCGUGGCAAAAUGGCUGUGGCUAGACUGGC [C13A G27A C45G] | 0.09
22 | GGCAGAGCUCAAAACAGCGUGGCAAAGCGGCUGUCUCUAGACUGGC [C13A U28C G35C G36U C45G] | 0.03
23 | GGCAGAGCUCAAAACAGCGUGGCAAAUUGGCUGUGGCAAGACUGCC [C13A G27U U38A] | 0.05
24 | GGCAGAGCUCAAAACAGAGUGGCAAAGUCGCUGUGGCUAGGCUGCC [C13A C18A G29C A41G] | 0.03
25 | GGCAGAGCUCAAAACAGCGUGGCAAAGUGACUGUGGCAAGAUUGCC [C13A G30A U38A C42U] | 0.09
26 | GGCAGAGCUCAAAACAGCGUGGCACAGUUGCUGUGGCUAGACAGCC [C13A A25C G29U U43A] | 0.14
27 | GGCAGAGCUCAAAACAGAGUGGCAAAGUUGCUGUGGCUAGACUGCC [C13A C18A G29U] | 0.14
28 | GGCAGAGCUCAAAACAGCGUGGAAGAGUGGCUGUGGCUAGACUGCC [C13A C23A A25G] | 0.06
29 | GGCAGAGCUCAAAACAGCGUGGCAAAGUGGCUUUGGCUACACUGCC [C13A G33U G40C] | 0.06
30 | GGCAGAGCUCAAAACAGCGUGGCAAAGUGGAUGUUGCUAGACUUCC [C13A C31A G35U G44U] | 0.01
31 | GGCAGAGCUCAAAACAGAGGGGAAAAGUGGCUGUGGUUUGACUGCC [C13A C18A U20G C23A C37U A39U] | 0.16
32 | GGCAGAGCUCAAAACAGCUUGGCACCGUGGCUGUGGCUAGACUGGC [C13A G19U A25C A26C C45G] | 0.01
33 | GGCAGAGCUCAAAACAGCGUGGCAUAGUGGCUGUGGUUAGACUGCC [C13A A25U C37U] | 0.01
34 | GGCAGAGCUCAAAACAGCGUGGCAAAGUGGCUGUUGCUAAACUGCC [C13A G35U G40A] | 0.15
35 | GGCAGAGCUCAAAAGAGCGUGACAAAGUGGCUGUGGCUAGACUGCC [C13A C15G G22A] | 0.02
36 | GGCAGAGCUCAAAACAGCGUGGCUUAGUGGCUGUGGUUAGACAACC [C13A A24U A25U C37U U43A G44A] | 0.07
37 | GGCAGAGCUCAAAACAGCGUUGCAAAGUGGCUGUGGCUAGUCUGCC [C13A G21U A41U] | 0.1
38 | GGCAGAGCUCAAAACAGCGCGGCAAAGUGACUGGGGCUAGACUGCC [C13A U20C G30A U34G] | 0.01

Row | Variant | self-cleavage
39 | GGCAGAGCUCAAAACAGCGUGGUAAAGUGGCUGUGGCUAGAAUGCC [C13A C23U C42A] | 0.01
40 | GGCAGAGCUCAAAACAGAGUUGCAAGGUGGCUGUGGCUAGACUGCC [C13A C18A G21U A26G] | 0.37
41 | GGCAGAGCUCAAAACAGCGUGGCAAAGUGGCUUUGGCUAGACUGCG [C13A G33U C46G] | 0.06
42 | GGCAGAGCUCAAAACAGCCUGGCAAGGUGACUGUGGUUAGACUGCC [C13A G19C A26G G30A C37U] | 0.03
43 | GGCAGAGCUCAAAACAGCGUGGCUCAGUGGCUGUGGCUAGACUGCC [C13A A24U A25C] | 0.01
44 | GGCAGAGCUCAAAACAGGGUGGCAAAGUGGCUAAGGCUAGACUGCC [C13A C18G G33A U34A] | 0.12
45 | GGCAGAGCUCAAAACAGCGUGGGAAUGUGGCUGUGGCUAGACCGCC [C13A C23G A26U U43C] | 0.08
46 | GGCAGAGCUCAAAACAGCGUGUCAAAGUGGCUGCGGCUAGACUGCC [C13A G22U U34C] | 0.07
47 | GGCAGAGCUCAAAACAGCGGGGGAAAGUGGCUGUGGCUAGACUGCC [C13A U20G C23G] | 0.02
48 | GGCAGAGCUCAAAAAAGCGUGCCAAAGACGCUGUGGCAAGACUGCC [C13A C15A G22C U28A G29C U38A] | 0.21
49 | GGCAGAGCUCAAAACAGCGUGGCAAACUGGCUGCGGCUAGACUGCC [C13A G27C U34C] | 0.01
50 | GGCAGAGCUCAAAACAGCGUGGCAAAGUGGCUGUCGCUAGACGGUC [C13A G35C U43G C45U] | 0.06
51 | GGCAGAGCUCAAAACAGCGUGGCAAAGUGUCUGUGGAUAGACUAAC [C13A G30U C37A G44A C45A] | 0.01
52 | GGCAGAGCUCAAAACAGCGAGGCAAAGUGGCUCUGGCUAGACUGCC [C13A U20A G33C] | 0.02
53 | GGCAGAGCUCAAAACAGCGUGGCAAAGUGGCUGUUGCUAGACGGCA [C13A G35U U43G C46A] | 0.05
54 | GGCAGAGCUCAAAACAGCGUGGCAAAGUGGCUGUUGCGAUACUGCC [C13A G35U U38G G40U] | 0.04
55 | GGCAGAGCUCAAAACAGCGUGUCAAAGUGGCUGUGGCUAGACUGCA [C13A G22U C46A] | 0.11
56 | GGCAGAGCUCAAAACACCGUGGCAAUGUGUCUGUGGCUAGACUGCC [C13A G17C A26U G30U] | 0.1
